# Data published in the BET-seq Pho4 binding data (Le et al. 2018).
# The other results are listed elsewhere or left out. The energies were worked out here from pooled read counts, against the library average; single values are noisy.
# Target: T1, Pho4 (S. cerevisiae) (UniProt P07270)
# T1 sequence: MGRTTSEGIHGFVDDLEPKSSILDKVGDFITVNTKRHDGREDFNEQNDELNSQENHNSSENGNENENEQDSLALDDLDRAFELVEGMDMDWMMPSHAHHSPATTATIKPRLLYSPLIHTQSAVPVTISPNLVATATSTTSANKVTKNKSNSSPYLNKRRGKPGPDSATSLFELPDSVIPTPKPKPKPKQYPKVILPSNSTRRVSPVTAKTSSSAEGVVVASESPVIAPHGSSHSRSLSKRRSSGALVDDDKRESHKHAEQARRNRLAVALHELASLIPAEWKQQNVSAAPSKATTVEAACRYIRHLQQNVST
# Assay: relative binding free energy (BET-seq); higher = weaker binding
# Conditions: reference: library average
row,Sequence,relative binding free energy [kcal/mol]
1,TAGGGCACGTGGTAGT,-0.16
2,AGTGACACGTGATGCG,0.06
3,TCTAACACGTGTGGTT,-0.02
4,CCGTGCACGTGAGAGG,0.39
5,AGGGTCACGTGAGGAA,0.34
6,TTGTACACGTGGCTGA,-0.1
7,ATTGTCACGTGAGGCG,0.28
8,GCTAGCACGTGGTATG,-0.15
9,ACGGGCACGTGGTTAA,-0.07
10,ATTTGCACGTGATATC,0.1
11,TTGTGCACGTGTAGAG,0.03
12,TTCATCACGTGGTTTG,0.15
13,GTGCGCACGTGTTGGT,-0.09
14,TGGTACACGTGTTACA,0.11
15,TTGTGCACGTGAAAAA,0.26
16,ATGAACACGTGGTTAG,-0.08
17,GTGATCACGTGGGCCG,0.1
18,TTGGTCACGTGTCGGA,0.09
19,TAGAGCACGTGATGGA,0.05
20,TAGTGCACGTGAGTAG,0.1
21,GGTTACACGTGTCGGG,0.24
22,TATCACACGTGATGTT,0.2
23,GTAGTCACGTGGATGC,0.07

row,Sequence,relative binding free energy [kcal/mol]
1,GTGTTCACGTGGGCGA,0.16
2,TTTGTCACGTGGCATT,-0.05
3,ATTTACACGTGATTTA,0.28
4,GAGTGCACGTGGTTTG,0
5,TAGTACACGTGGGATA,0.11
6,TAGATCACGTGAGTGG,0.23
7,TGGTACACGTGATGCG,0.1
8,CTATTCACGTGTGGGG,0.24
9,GAGTTCACGTGCTGTG,0.32
10,CAGTGCACGTGAGGGA,0.27
11,TTAAACACGTGATTTT,0.13
12,TGAAGCACGTGCGGAA,0.07
13,GTTGTCACGTGCTCGT,-0.04
14,GTCTACACGTGGTTAT,0.11
15,CAGGCCACGTGTGTTG,-0.05
16,GAAGTCACGTGGGCGA,-0.02
17,AGTTCCACGTGCTGGG,0.08
18,TGGAGCACGTGGTTGA,-0.07
19,GAGTTCACGTGCTTTG,0.2
20,ATGTTCACGTGGTATA,0.06
21,AATTGCACGTGATTTG,0.06
22,AGTCGCACGTGTGTGA,0.07
23,TCTTGCACGTGTCAGT,0.01

row,Sequence,relative binding free energy [kcal/mol]
1,AAGGTCACGTGACAGG,0.18
2,GATTACACGTGCTTGT,0.12
3,CACGGCACGTGGGGGA,-0.25
4,TTTTACACGTGTAGAG,0.24
5,AGGTGCACGTGTTCTG,-0.22
6,CATGACACGTGAAGGT,0.24
7,GTTACCACGTGGTGGC,0.02
8,ATTGACACGTGCGTTG,-0.1
9,GTTGTCACGTGAAGCG,0.28
10,GTTAGCACGTGTGTGG,-0.09
11,TTGATCACGTGAGGTT,0.26
12,GTCGCCACGTGTTTGT,0.03
13,AAGGTCACGTGCATGT,0.05
14,GTGCACACGTGGAGGG,0.09
15,AGTAACACGTGAAGTT,0.11
16,TTATTCACGTGGGATC,0.14
17,TTGAACACGTGTAGGC,-0.01
18,TACGTCACGTGGGGTG,-0.06
19,GCGGTCACGTGGGCTG,-0.05
20,ATACACACGTGTAGGT,-0.05
21,AGGTCCACGTGGGCGT,-0.13
22,CGTTGCACGTGTTTCG,0
23,GGGGTCACGTGAGGAT,0.48

row,Sequence,relative binding free energy [kcal/mol]
1,AGTGCCACGTGAGTGG,0.15
2,GCTCACACGTGTTGGT,0.37
3,CTGGGCACGTGGTCGA,-0.1
4,GGGTACACGTGCGGCT,0.02
5,CGCGGCACGTGTGGAT,-0.12
6,GGAATCACGTGAAGAG,0.44
7,AACAGCACGTGGTAGG,-0.13
8,TTTGTCACGTGCGAAG,0.1
9,GAGCGCACGTGTTGGG,-0.06
10,GTGGGCACGTGATTGG,0.08
11,GTTGGCACGTGCGGGT,-0.2
12,GTTGCCACGTGGTGTT,0.06
13,GTTTCCACGTGTTTAG,0.1
14,CTGGTCACGTGGAAAT,0.29
15,CGGGCCACGTGGGGAA,-0.21
16,AATTTCACGTGTGGAC,0.34
17,GGCATCACGTGTAGGG,0.13
18,CTGGGCACGTGTAGTT,-0.07
19,ATGAGCACGTGCCGGT,0.05
20,GGACGCACGTGGGTTG,-0.24
21,TTATCCACGTGTTTGA,-0.07
22,TGTTTCACGTGTCAAG,0.25
23,TCCTGCACGTGATGTG,0.08

row,Sequence,relative binding free energy [kcal/mol]
1,AGAAGCACGTGGGGGG,-0.29
2,TGAGGCACGTGAGGTG,0.14
3,AAATCCACGTGGGGTT,0
4,TCGTTCACGTGGCTTT,0.3
5,GTTTCCACGTGTTTTA,0.05
6,CGAAGCACGTGTGGAT,0.1
7,TTTTTCACGTGTACGC,0.52
8,TTGCTCACGTGGAGCA,0.4
9,AGGTTCACGTGGCTAT,0.29
10,TTAATCACGTGTAGTG,0.11
11,ATTGGCACGTGGGGCG,-0.22
12,AGTCACACGTGGTGTG,-0.11
13,CCTCGCACGTGGGGTT,-0.14
14,AGTATCACGTGATGAG,0.07
15,GTTTACACGTGTTGTC,0.1
16,GAACTCACGTGTGTTT,0.35
17,ATTGACACGTGAAGTT,0.28
18,AGTGTCACGTGAAGTG,0.22
19,GTTGGCACGTGGCGCG,-0.14
20,GGATGCACGTGTCTTT,-0.02
21,GGTTACACGTGGGTAT,0.04
22,GATATCACGTGTATAT,0.23
23,GAGGTCACGTGTTGCT,0.19
